Test results taken from patent US20250270332A1.

B1: CM0042 (Dia-Fc-Dia) (bispecific antibody)
chain: MNLLLILTFVAAAVAEFEVQLVESGGGLVQPGGSLRLSCAASGFNIGSSSIHWVRQAPGKGLEWVASIYSAFASTSYADSVKGRFTISADTSKNTAYLQMNSLRAEDTAVYYCARYHFPFGFALDYWGQGTLVTVSSGGGGSDIQMTQSPSSLSASVGDRVTITCRASQSVSSAVAWYQQKPGKAPKLLIYSASSLYSGVPSRFSGSRSGTDFTLTISSLQPEDFATYYCQQGVYLFTFGQGTKVEIKLEDKTHTKV[sequence of human IgG1 Fc with C220S (EU numbers) not given]SGSETPGTSESATPESGGGEVQLVESGGGLVQPGGSLRLSCAASGFNISYSSIHWVRQAPGKGLEWVAYISSYYGYTYYADSVKGRFTISADTSKNTAYLQMNSLRAEDTAVYYCARAHYFPWAGAMDYWGQGTLVTVSSGGGGSDIQMTQSPSSLSASVGDRVTITCRASQSVSSAVAWYQQKPGKAPKLLIYSASSLYSGVPSRFSGSRSGTDFTLTISSLQPEDFATYYCQQYSWGPFTFGQGTKVEIK
B2: CM0299 (IgG-Dia) (bispecific antibody)
heavy: EVQLVESGGGLVQPGGSLRLSCAASGFNIHSSSIHWVRQAPGKGLEWVAATYSSFGSITYADSVKGRFTISADTSKNTAYLQMNSLRAEDTAVYYCARYHHPFGYALDYWGQGTLVTVSS[sequence of human IgG1 constant region not given]SGSETPGTSESATPESGGGEVQLVESGGGLVQPGGSLRLSCAASGFNISYSSIHWVRQAPGKGLEWVAYISSYYGYTYYADSVKGRFTISADTSKNTAYLQMNSLRAEDTAVYYCARAHYFPWAGAMDYWGQGTLVTVSSGGGGSDIQMTQSPSSLSASVGDRVTITCRASQSVSSAVAWYQQKPGKAPKLLIYSASSLYSGVPSRFSGSRSGTDFTLTISSLQPEDFATYYCQQYSWGPFTFGQGTKVEIK
light: DIQMTQSPSSLSASVGDRVTITCRASQSVSSAVAWYQQKPGKAPKLLIYSASSLYSGVPSRFSGSRSGTDFTLTISSLQPEDFATYYCQQGVYLFTFGQGTKVEIKRTVAAPSVFIFPPSDEQLKSGTASVVCLLNNFYPREAKVQWKVDNALQSGNSQESVTEQDSKDSTYSLSSTLTLSKADYEKHKVYACEVTHQGLSSPVTKSFNRGEC
B3: CM0300 (IgG-scFv) (bispecific antibody)
heavy: EVQLVESGGGLVQPGGSLRLSCAASGFNIHSSSIHWVRQAPGKGLEWVAATYSSFGSITYADSVKGRFTISADTSKNTAYLQMNSLRAEDTAVYYCARYHHPFGYALDYWGQGTLVTVSS[sequence of human IgG1 constant region not given]SGSETPGTSESATPESGGGDIQMTQSPSSLSASVGDRVTITCRASQSVSSAVAWYQQKPGKAPKLLIYSASSLYSGVPSRFSGSRSGTDFTLTISSLQPEDFATYYCQQYSWGPFTFGQGTKVEIKGTTAASGSSGGSSSGAEVQLVESGGGLVQPGGSLRLSCAASGFNISYSSIHWVRQAPGKGLEWVAYISSYYGYTYYADSVKGRFTISADTSKNTAYLQMNSLRAEDTAVYYCARAHYFPWAGAMDYWGQGTLVTVSS
light: DIQMTQSPSSLSASVGDRVTITCRASQSVSSAVAWYQQKPGKAPKLLIYSASSLYSGVPSRFSGSRSGTDFTLTISSLQPEDFATYYCQQGVYLFTFGQGTKVEIKRTVAAPSVFIFPPSDEQLKSGTASVVCLLNNFYPREAKVQWKVDNALQSGNSQESVTEQDSKDSTYSLSSTLTLSKADYEKHKVYACEVTHQGLSSPVTKSFNRGEC
B4: CM0301 (IgG-scFv) (bispecific antibody)
heavy: EVQLVESGGGLVQPGGSLRLSCAASGFNIHSSSIHWVRQAPGKGLEWVAATYSSFGSITYADSVKGRFTISADTSKNTAYLQMNSLRAEDTAVYYCARYHHPFGYALDYWGQGTLVTVSS[sequence of human IgG1 constant region not given]SGSETPGTSESATPESGGGDIQMTQSPSSLSASVGDRVTITCRASQSVSSAVAWYQQKPGKAPKLLIYSASSLYSGVPSRFSGSRSGTDFTLTISSLQPEDFATYYCQQYYWPITFGQGTKVEIKGTTAASGSSGGSSSGAEVQLVESGGGLVQPGGSLRLSCAASGFNISSYYIHWVRQAPGKGLEWVASIYSSYGYTSYADSVKGRFTISADTSKNTAYLQMNSLRAEDTAVYYCARTVRGSKKPYFSGWAMDYWGQGTLVTVSS
light: DIQMTQSPSSLSASVGDRVTITCRASQSVSSAVAWYQQKPGKAPKLLIYSASSLYSGVPSRFSGSRSGTDFTLTISSLQPEDFATYYCQQGVYLFTFGQGTKVEIKRTVAAPSVFIFPPSDEQLKSGTASVVCLLNNFYPREAKVQWKVDNALQSGNSQESVTEQDSKDSTYSLSSTLTLSKADYEKHKVYACEVTHQGLSSPVTKSFNRGEC

The binders below were run against FZD1/2/4/5/7/8 (assay: cell-based or functional assay).
Binder B1 has a % Wnt Maxima Avg of 33%, a Maximal Signal (% Wnt3a maxima) (% Wnt3a maxima) of 33 and a Topflash EC50 (nM) Avg of 0.9 nM. Binder B2 has a % Wnt Maxima Avg of 14%, an EC50 (nM), TOPFLASH assay of 0.1 nM and a Maximal Signal (% Wnt3a maxima) (% Wnt3a maxima) of 14. It also gave a Topflash EC50 (nM) Avg of 0.1 nM. For B3, the % Wnt Maxima Avg was 5%, the EC50 (nM), TOPFLASH assay was 0.3 nM and the Maximal Signal (% Wnt3a maxima) (% Wnt3a maxima) was 5. It also gave a Topflash EC50 (nM) Avg of 0.3 nM. B4 showed a % Wnt Maxima Avg of 1%, an EC50 (nM), TOPFLASH assay of 0.2 nM and a Maximal Signal (% Wnt3a maxima) (% Wnt3a maxima) of 1. The Topflash EC50 (nM) Avg was 0.2 nM.
